Results reported in ChEMBL document CHEMBL4888484, “Replenishing the malaria drug discovery pipeline: Screening and hit evaluation of the MMV Hit Generation Library 1 (HGL1) against asexual blood stage Plasmodium falciparum ,using a nano luciferase reporter read-out” (2022).
Values joined by “and” are separate entries in the source; they are usually repeats but may differ in a detail not shown here. Identical values can stand only once. Hit rate of the full screen: of about 150,000 compounds, about 540 (0.36%) showed an effect of 50% or more. The list shows a part of the results.

Test system: Plasmodium falciparum
Test: Primary screen in NF54 nanoGlo assay, in single point, at 2uM, 72h; a lower Z score goes with more inhibition
Assay type: functional, Erythrocyte
Conditions: timepoint 72 hour

CC(C)CN(C1CCN(C)CC1)C1CN(C(=O)COc2ccccc2)C1
% Inhibition: 8% | Z score: -1.11

Nc1nccnc1C(=O)N1CCC2(CC1)OCCO2
% Inhibition: 14% | Z score: -1.23

Nc1ccc(C2(c3ccc(N)cc3)c3ccccc3-c3ccccc32)cc1
% Inhibition: -3% | Z score: 0.4

Cc1noc(C)c1CC(=O)N1CC[C@@H]2CN(Cc3cccnc3)[C@@H]2C1
% Inhibition: 14% | Z score: -1.84

O=C(NCC#CCN1CCCC1)c1ccc(Cl)cc1
% Inhibition: -7% | Z score: 1.27

CCOC(=O)CN(C)C1CN(C(=O)Cc2c(C)n[nH]c2C)C1
% Inhibition: -12% | Z score: 1.59

O=S(=O)(NC1CCN2CCCCC12)c1cccs1 (configuration not stated)
% Inhibition: -6% | Z score: 0.87

O=C(c1ccc(Cl)cc1)[C@H]1CCCN(Cc2ccc3ncccc3c2)C1
% Inhibition: -9% | Z score: 1.33

O=C(COc1ccc(Cl)cc1Cl)N1CCCN2CCC[C@H]2C1
% Inhibition: -7% | Z score: 0.7

Cc1ccc(N2CCC3(CCCN3Cc3ccc(Cl)s3)CC2)nn1
% Inhibition: -9% | Z score: 1.66

CC(C(=O)N1CCN2C[C@@H](F)C[C@H]2C1)C1CC1 (some centres not stated)
% Inhibition: -7% | Z score: 1.23

Cc1nnc(CN2CCC3(CC2)C(=O)N(C)c2ccccc23)s1
% Inhibition: -15% | Z score: 2.52

O=S(=O)(O[C@H]1CN2CCC1CC2)c1ccccc1
% Inhibition (2 µM): -12% and 3%

O=C(N[C@@H]1[C@@H]2CCO[C@@H]2[C@H]1N1CCCC1)c1ncccc1O
% Inhibition: 1% | Z score: -0.28

CC12CC(CN1[C@@H](C(=O)O)c1ccc(F)cc1)C2
% Inhibition: -4% | Z score: 0.47

CN1CCC[C@]2(CCCN(C(=O)c3ccncc3O)C2)C1
% Inhibition: -3% | Z score: 0.38

Cc1cc(N2CC[C@@]3(CCCN3C)C2)ncn1
% Inhibition: -1% | Z score: 0.24

CCCCCOc1cccc([C@@H](O)CNC)c1
% Inhibition: 21% | Z score: -2.63

CN1CCC2CCN(C(=O)Nc3nccs3)C2C1 (configuration not stated)
% Inhibition: -8% | Z score: 0.77

COc1ccc(CC(=O)N2CCN(Cc3ccccc3)CC[C@@H]2C)nc1
% Inhibition: 3% | Z score: -0.48

COc1ccc(N2CCN3c4ccccc4CC4(C(=O)N(CCc5ccc(OC)c(OC)c5)C(=O)N=C4O)C3C2)cc1 (configuration not stated)
% Inhibition: 9% | Z score: -1.07

CC(C)(C(=O)N1C2CCC1C(CO)C2)c1cccc(Br)c1 (configuration not stated)
% Inhibition: -13% | Z score: 1.96

O=C1NC(=O)C2(Cc3cccc(F)c3N3CCN(c4ccccc4)CC32)C(=O)N1c1ccccc1 (configuration not stated)
% Inhibition: -4% | Z score: 0.63

CCCCc1cn(C[C@H]2C[C@@H]3CCN2C[C@@H]3C(=O)Nc2nccs2)nn1
% Inhibition: 27% | Z score: -3.04

Cc1c(C)n(Cc2ccccc2)c2ccc(C(=O)N3CCC4(CC3)OCCO4)cc12
% Inhibition: -10% | Z score: 1.3

COc1cccc(C[C@H](C)NC(=O)CC2(O)CCCC2)c1
% Inhibition: -16% | Z score: 1.32

Cc1cc(C)n(C[C@H](C)N2CCc3nocc3C2)n1
% Inhibition: -4% | Z score: 0.81

Nc1nc(CCC(=O)NCCc2c[nH]cn2)cs1
% Inhibition: 1% | Z score: -0.09

Cn1cc2ncn(CCc3c[nH]cn3)c(=O)c2n1
% Inhibition: 5% | Z score: -0.7

CN1CCC(O)(c2ccccc2)C2CCCCC21 (configuration not stated)
% Inhibition: -12% | Z score: 2.37

CN(C(=O)C1CC1C1CC1)C1CC2CCC(C1)N2 (configuration not stated)
% Inhibition: -3% | Z score: 0.34

C[C@@H](Cc1ccccc1Cl)NC(=O)NCCCC(N)=O
% Inhibition: -12% | Z score: 2.37

O=C(Nc1cccc(F)c1)N1C[C@@H]2C[C@H](C1)c1c(-c3ccccc3)ccc(=O)n1C2
% Inhibition: -4% | Z score: 0.59

Cc1cc(-c2ccccc2)nc(CN2CCCN3CCC[C@H]3C2)n1
% Inhibition: 0% | Z score: 0.01

CCN(CC)[C@@]1(c2nnnn2C2CCCC2)CCN(C(=O)Cc2ccncc2)C1
% Inhibition: 2% | Z score: -0.22

CCc1nn(C)c(Cl)c1CN1CCN([C@H]2CN3CCC2CC3)CC1
% Inhibition: -11% | Z score: 1.82

Clc1ccc(C2CC(c3cccnc3)Nc3nnnn32)cc1 (configuration not stated)
% Inhibition: 34% | Z score: -4.62

CCOc1ccc(CN2C[C@H]3CC[C@H]2C3)cc1Cl
% Inhibition: 8% | Z score: -1.34

O=C(Nc1ccccc1NCC(F)(F)F)c1cn([C@H]2CCOC2)nn1
% Inhibition: -5% | Z score: 0.45

Cc1cnn(CC(C)NC2CCOC2=O)c1 (configuration not stated)
% Inhibition: -8% | Z score: 1.25

Cn1cccc1C(=O)N[C@H]1COC[C@@H]1N1CCOCC1
% Inhibition: -6% | Z score: 0.79

CC(=O)Nc1ccc(S(=O)(=O)N2CC3C[C@H](C2)c2cccc(=O)n2C3)cc1
% Inhibition: -6% | Z score: 0.51

Cc1cnn(C[C@H](C)NCc2cn(C(C)(C)C)nn2)c1
% Inhibition: -16% | Z score: 1.81

C[C@H](Oc1ccccc1)c1nc(-c2ccc3c(c2)oc(=O)n3C)no1
% Inhibition: -4% | Z score: 0.39

CC(=Cc1ccc(C)cc1)C(=O)NC[C@H]1CN2CCC1CC2
% Inhibition: -6% | Z score: 1.07

CC(C)n1ncc(C(=O)N[C@@H]2CCC[C@H]2N(C)C)c1C1CC1
% Inhibition: -4% | Z score: 0.47

CCN(Cc1ccnc(C(C)C)n1)[C@@H](C)Cc1ccc(OC)cc1
% Inhibition: -4% | Z score: 0.57

CCc1nc(C)sc1CN1C[C@H]2c3ccccc3OC[C@@]2(C(=O)O)C1
% Inhibition: -12% | Z score: 1.93

O=C(c1cc(-c2ccccc2)on1)N1C[C@@H]2C[C@@H](C1)c1cccc(=O)n1C2
% Inhibition: -6% | Z score: 0.88

CCOC(=O)c1c(-c2ccccc2)n(Cc2ccccc2)c2ccc(OC(C)=O)cc12
% Inhibition: -9% | Z score: 0.99

Cc1ccccc1[C@H](Cn1ccnc1-c1c[nH]cn1)N(C)C
% Inhibition: 8% | Z score: -1.14

O=C1NC(=O)C(CCc2ccncc2)(C(c2ccccc2)c2ccccc2)C(=O)N1
% Inhibition: -13% | Z score: 1.73

CCN(CC)C(=O)Oc1ccc2c(ccn2Cc2cccc(C#N)c2)c1-c1cc(C)cc(C)c1
% Inhibition: -2% | Z score: 0.23

CC(C)O[C@H]1CN(C2CCCCCC2)C[C@@H]1O
% Inhibition: -18% | Z score: 2.31
